# Laboratory results as given in PMC4336329 (PLoS ONE, 2015).
# The whole screen tested about 310,000 compounds, of which about 14,000 (4.5%) showed an effect of 50% or more. Effects have a minus sign here. The list shows a part of the results.
# Target: human ether-à-go-go-related gene (hERG) potassium channel (human, UniProt Q12809)
# Assay: primary screen, population patch clamp on CHO cells stably expressing hERG
# 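Further: peak tail current of the secondary pulse compared with the same well before compound.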
# Chain of human ether-à-go-go-related gene (hERG) potassium channel (Q12809 whole entry, looked up): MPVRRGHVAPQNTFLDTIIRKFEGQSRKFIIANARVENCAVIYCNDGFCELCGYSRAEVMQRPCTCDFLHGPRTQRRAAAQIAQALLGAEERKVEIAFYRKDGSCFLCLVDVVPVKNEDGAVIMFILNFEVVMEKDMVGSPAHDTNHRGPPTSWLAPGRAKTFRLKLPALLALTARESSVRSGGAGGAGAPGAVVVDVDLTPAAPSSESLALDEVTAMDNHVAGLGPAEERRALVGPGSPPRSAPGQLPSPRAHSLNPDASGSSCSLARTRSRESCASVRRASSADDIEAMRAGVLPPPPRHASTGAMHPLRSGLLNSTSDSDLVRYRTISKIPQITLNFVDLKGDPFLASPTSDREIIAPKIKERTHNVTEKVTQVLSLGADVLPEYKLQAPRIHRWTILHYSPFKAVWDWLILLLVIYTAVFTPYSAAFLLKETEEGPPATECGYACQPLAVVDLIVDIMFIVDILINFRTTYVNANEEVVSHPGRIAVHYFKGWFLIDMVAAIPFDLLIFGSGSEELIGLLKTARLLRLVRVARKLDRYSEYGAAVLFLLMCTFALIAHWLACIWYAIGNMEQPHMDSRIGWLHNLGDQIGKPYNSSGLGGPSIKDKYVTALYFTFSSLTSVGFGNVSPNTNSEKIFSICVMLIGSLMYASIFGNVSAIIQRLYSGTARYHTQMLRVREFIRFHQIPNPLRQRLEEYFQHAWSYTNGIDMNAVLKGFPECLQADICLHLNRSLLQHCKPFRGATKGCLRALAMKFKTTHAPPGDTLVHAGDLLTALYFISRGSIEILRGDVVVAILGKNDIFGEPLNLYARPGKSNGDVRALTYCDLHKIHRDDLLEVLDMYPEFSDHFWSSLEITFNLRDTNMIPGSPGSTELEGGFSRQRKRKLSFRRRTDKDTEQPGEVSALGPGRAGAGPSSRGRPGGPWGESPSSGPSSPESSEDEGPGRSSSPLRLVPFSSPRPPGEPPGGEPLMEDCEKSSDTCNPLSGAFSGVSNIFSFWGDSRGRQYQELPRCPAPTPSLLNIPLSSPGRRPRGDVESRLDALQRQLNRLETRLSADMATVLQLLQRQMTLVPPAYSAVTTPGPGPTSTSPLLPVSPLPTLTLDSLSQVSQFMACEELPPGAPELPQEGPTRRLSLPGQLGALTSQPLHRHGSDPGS
row,Structure (SMILES),"hERG current change (%, negative = inhibition) at 10uM"
1,COc1ccc(OC)c2c1cc(C(=O)N[C@H](C(=O)N1CCC[C@H]1C(=O)O)C(C)C)n2C,18.5%
2,CCOc1ccc2nc(NC(=O)C(NS(=O)(=O)c3cccs3)C(C)C)sc2c1 (stereo not drawn),6.36%
3,CCOC(=O)N1CCC(=NNC(=O)COc2ccc(OC)cc2)CC1,8.98%
4,c1ccc2c(c1)ncn2Cc1nnc2sc(-c3ccc4c(c3)OCO4)nn12,-2.08%
5,CC1CCN(CCNC(=O)C2CCN(S(=O)(=O)c3cccc4nsnc34)CC2)CC1,-5.91%
6,O=C(/C=C/c1ccc(Cl)c([N+](=O)[O-])c1)Nc1ccc(N2CCCC2)c(Cl)c1,18.1%
7,CCn1c(=O)c2sccc2n2c(CCCC(=O)N3CCN(c4ccccn4)CC3)nnc12,-17.6%
8,COC(=O)c1ccc(CN(c2ccc(C(=O)O)c(O)c2)S(=O)(=O)c2ccc(Cl)c([N+](=O)[O-])c2)cc1,16%
9,Cc1cc(C)nc(SCC(=O)Nc2cccc(S(=O)(=O)N(C)C)c2)n1,-4.46%
10,CCC1CCCCN1CCCNC(=O)COc1cc(=O)n(C)c2ccccc12 (stereo not drawn),-1.99%
11,C#CCNC(=O)C1=C[C@H](C(C)(C)C)C[C@H](OCc2ccc(CO)cc2)O1,-18.7%
12,COc1cc(CN2CCNC(=O)C2CC(=O)N(Cc2nccn2C)C(C)C)cc(OC)c1 (stereo not drawn),-0.0896%
13,CN(C)S(=O)(=O)c1ccc(NC(=O)N2CCOCC2)cc1,15.5%
14,CO/N=C(/CNC(=O)c1ccc(Cl)cc1Cl)c1ccc(Cl)cc1,-7.46%
15,COc1ccc(C)cc1NC(=O)NCc1ccccc1F,-4.83%
16,CC1CCN(C(=O)CN2C(=O)COc3ccc(Cl)cc32)CC1,9.12%
17,CCN(CC)C(=O)NC1CCCCCCC1,14.2%
18,CC(=O)c1cccc(NC(=O)CC2CCCC2)c1,11.2%
19,CCn1c(=O)c2sccc2n(Cc2cc(C(=O)OC)ccc2OC)c1=O,-9.52%
20,CS(=O)(=O)Nc1ccc(S(=O)(=O)N2CCCCCC2)cc1,-65.4%
21,Cc1ccc(NC(=O)CN(C)C(=O)c2ccc(Cl)c([N+](=O)[O-])c2)cc1,-52.1%
22,CN(C)C(=O)COC(=O)c1ccccc1Nc1ccc(SC(F)F)cc1,-44.3%

row,Structure (SMILES),"hERG current change (%, negative = inhibition) at 10uM"
1,O=C(NC(Cc1ccccc1)C(=O)O)c1cccnc1Cl (stereo not drawn),10.9%
2,CCNC(=O)C1Cc2ccccc2CN1S(=O)(=O)c1ccc(F)cc1 (stereo not drawn),-3.64%
3,O=C(CCNS(=O)(=O)c1ccccc1)N1CCCCCCC1,2.14%
4,Cc1cc(C)c(NC(=O)Cn2nnc(C(=O)NCc3ccc4c(c3)OCO4)c2N)c(C)c1,8.04%
5,O=C(NC(=O)c1csnn1)Nc1ccccc1Cl,9.03%
6,CCc1c(C)nc2ncnn2c1N1CCCC(C(=O)NCCc2ccc(OC)cc2)C1 (stereo not drawn),-19.6%
7,Cc1cccc(N(C(=O)c2ccco2)C(C(=O)NC2CCCC2)c2cccnc2)c1C (stereo not drawn),-4.13%
8,CCN(CC)CCNC(=O)Cn1ncc2ccccc2c1=O,7.05%
9,Cc1ccc(CNC(=O)C(=O)Nc2nccs2)cc1,15%
10,CC(C)CNC(=O)COC(=O)c1ccc(Cl)c(S(=O)(=O)N2CCc3ccccc32)c1,9.02%
11,N#Cc1ccc(NC(=O)CN2C(=O)NC3(CCCC3)C2=O)cc1Cl,18.5%
12,CCc1ccccc1N(CC(=O)NCc1ccccc1)C(=O)CCC(=O)Nc1ccccn1,7.38%
13,CC1(C)CN(c2cccc(-c3ccnc4ncnn34)c2)C1=O,7.66%
14,Cc1nc2sc3c(c2c(=N)n1N)CCCC3,4.73%
15,O=C(Nn1cnnc1)c1cc2c(s1)CCCCC2,-0.239%
16,CC(C)NC(=O)NC(=O)COC(=O)c1ccc(F)cc1F,1.75%
17,CC(C)Oc1ccc(S(=O)(=O)N2CCOCC2)cc1NC(=O)C1CCC1,-0.177%
18,CC/C=C/C(=O)N1CC2(CC(c3cccc(NC(=O)COc4ccc(Cl)cc4)c3)=NO2)C[C@H]1C(N)=O (stereo partly drawn),-64.7%
19,Cc1ccc2cc(C#N)c(SCC(=O)N3CCCc4ccccc43)nc2c1,10.8%
20,Cc1ccc(N=Nc2c(C)[nH]n(C(N)=S)c2=O)cc1C,27.4%
21,CCC(=O)Nc1sc2c(c1C#N)CC(C)(C)NC2(C)C,-3.25%
22,CC(C)Cn1cnc2c1c(=O)n(CC(=O)Nc1ccc3c(c1)OCO3)c(=O)n2Cc1ccccc1,-2.04%

row,Structure (SMILES),"hERG current change (%, negative = inhibition) at 10uM"
1,Cc1ccc2c(c1)-c1cc(C)nn1C(c1ccc3c(c1)OCO3)N2 (stereo not drawn),-0.444%
2,COc1ccc(C(=O)N/C(=C\c2cn(C)c3ccccc23)C(=O)NCCN2CCOCC2)cc1OC,21.1%
3,Cc1ccc2cc(CN(Cc3ccc4c(c3)OCO4)Cc3nnnn3Cc3ccco3)c(=O)[nH]c2c1C,-12.2%
4,COc1ccccc1C(=O)N/C(=C\c1cn(C)c2ccccc12)C(=O)NCCCn1ccnc1,3.22%
5,COc1ccc(CNC(=O)c2cccs2)cc1,-11.1%
6,CCOc1ccc(NC(=O)CSc2nnc(CCNC(=O)c3ccc(OC)cc3)n2CC)cc1,-26.7%
7,COc1ccc(S(=O)(=O)NC(N)=NCCc2ccc(OC)c(OC)c2)cc1,8.65%
8,Cc1cccc(NC(=S)NNC(=S)NC2CCCCC2)c1C,19.3%
9,O=C(CCCCCNC(=O)c1ccccc1Br)N=Nc1c(O)[nH]c2ccccc12,14.9%
10,O=C(CNC(=S)NC(=O)c1ccc(Br)o1)c1ccccc1,7.27%
11,Cc1cccnc1NC(=O)CCNS(=O)(=O)c1ccc2c(c1)c(=O)n(C)c(=O)n2C,11.9%
12,CCOC(=O)c1c(NC(=O)CN2CCOCC2)sc(C(=O)NC)c1C,-0.98%
13,CN(C(=O)C1CCC1C(=O)O)c1nc(-c2ccc(Cl)s2)cs1 (stereo not drawn),9.34%
14,O=C(c1n[nH]c(=O)c2ccccc12)N1CCOCC1,5.08%
15,Cc1ccc(CN(C)Cc2cc(=O)oc3cc(C)c(Cl)cc23)cc1,14.9%
16,Brc1ccc(OCCN2CCOCC2)cc1,4.54%
17,Clc1ccccc1CSc1ncn(-c2ccccc2)n1,-33.4%
18,CCCCNC(=O)[C@@H]1CSC2c3ccccc3C(=O)N21 (stereo partly drawn),13.9%
19,COC(=O)C[C@H]1c2cc(F)ccc2S(=O)(=O)N1Cc1ccccc1,-1.3%
20,CC(=O)c1ccc(S(=O)(=O)N2CCN(C(=O)c3ccccc3Cc3ccccc3)CC2)cc1,3.86%
21,O=C(CCCN1C(=O)S/C(=C\C=C\c2ccccc2)C1=O)Nc1ccc(C(=O)O)cc1,31.5%
22,O=C(COC(=O)CNC(=O)c1ccc(Br)o1)Nc1ccccc1OC(F)F,-51.6%

row,Structure (SMILES),"hERG current change (%, negative = inhibition) at 10uM"
1,O=C(NC1CCCC1)C1CC(=O)N(c2ccc(F)c(Cl)c2)C1 (stereo not drawn),1.97%
2,O=C(NCCCN1CCOCC1)c1cc(-c2ccccc2F)no1,9.51%
3,Cc1cccc(-c2noc(-c3ccno3)n2)c1,-53%
4,CCOC(=O)C1(Cc2ccccc2)CCN(Cc2cnn(C(C)C)c2)CC1,-28.7%
5,COc1cc2c(cc1OC)-c1c(OC)c(OC)cc3c1C(C2)N(C)CC3 (stereo not drawn),-5.23%
6,Cc1ccc2cc3c(NS(=O)(=O)c4cccc5nonc45)nn(CC(C)C)c3nc2c1,9.9%
7,CC(=O)Nc1ccc(C(=O)Nc2ccncc2)cc1,15%
8,CCOC(=O)c1c(C)[nH]c(C(=O)OCC(=O)N(CC(C)C)C2CCS(=O)(=O)C2)c1C (stereo not drawn),-17%
9,CCn1cnc2c1c(=O)n(CC(=O)NCC(C)C)c(=O)n2Cc1ccccc1,18.1%
10,CC(Sc1nc(-c2ccccc2)cs1)C(=O)Nc1ccc(Cl)cn1 (stereo not drawn),9.44%
11,O=C(C1CCC1)N1CCN(S(=O)(=O)c2ccccc2)CC1,15.1%
12,CN(C)CCCn1c(=S)[nH]c2sc3c(c2c1=O)CCCC3,-6.36%
13,COc1ccc(OC)c(N(CC(=O)N2CCCC2)S(C)(=O)=O)c1,7.44%
14,COc1ccccc1NC(=O)CNc1ccc(F)c(Cl)c1,-11.7%
15,NC(=O)[C@@H]1CCCCNc2c(F)cc([N+](=O)[O-])cc2C(=O)N[C@@H](CC(=O)O)C(=O)N[C@@H](CCC(=O)O)C(=O)N1,16.8%
16,Cc1ccc2c(c1)C(C)CC(C)(C)N2C(=O)NC1CCCCC1 (stereo not drawn),-12.5%
17,C/C(=N\NC(=O)c1ccc(NS(=O)(=O)c2cccs2)cc1)c1cccs1,5.99%
18,CCOC(=O)N1CCC(NC(=O)C2CCCN2C(=O)OCc2ccccc2)CC1 (stereo not drawn),-2.7%
19,CC(Oc1ccc(F)cc1)C(=O)Oc1ccc(N(C)S(=O)(=O)c2ccccc2)cc1 (stereo not drawn),16.3%
20,Cc1ccc(NC(=O)CN(C)C(=O)c2ccc(NC(=O)CC3SC(N4CCCC4)=NC3=O)cc2)cc1 (stereo not drawn),12.5%
21,ON1C2CCCCC2N(O)C1c1ccccc1C(F)(F)F (stereo not drawn),-1.09%
